# In all, about 110,000 compounds were measured (“z-score”: median about -0.1, highest 2% from about 2 on). The list shows a part of the results.
# Target: Metabotropic glutamate receptor 8 (Rattus norvegicus) (UniProt P70579)
# Assay: mGluR8 Gi/Go-coupled signaling modulation – cell-based, rat, thallium flux, HTS, primary screen (AID 488969)
# Conditions: HEK293 rat mGluR8, GIRK (G protein-gated inwardly rectifying potassium channel) thallium flux, FluoZin2; at 10 µM; stronger effect = higher value; submaximal glutamate (EC20) added with thallium
# Sequence of UniProt P70579 (P70579 whole entry, looked up): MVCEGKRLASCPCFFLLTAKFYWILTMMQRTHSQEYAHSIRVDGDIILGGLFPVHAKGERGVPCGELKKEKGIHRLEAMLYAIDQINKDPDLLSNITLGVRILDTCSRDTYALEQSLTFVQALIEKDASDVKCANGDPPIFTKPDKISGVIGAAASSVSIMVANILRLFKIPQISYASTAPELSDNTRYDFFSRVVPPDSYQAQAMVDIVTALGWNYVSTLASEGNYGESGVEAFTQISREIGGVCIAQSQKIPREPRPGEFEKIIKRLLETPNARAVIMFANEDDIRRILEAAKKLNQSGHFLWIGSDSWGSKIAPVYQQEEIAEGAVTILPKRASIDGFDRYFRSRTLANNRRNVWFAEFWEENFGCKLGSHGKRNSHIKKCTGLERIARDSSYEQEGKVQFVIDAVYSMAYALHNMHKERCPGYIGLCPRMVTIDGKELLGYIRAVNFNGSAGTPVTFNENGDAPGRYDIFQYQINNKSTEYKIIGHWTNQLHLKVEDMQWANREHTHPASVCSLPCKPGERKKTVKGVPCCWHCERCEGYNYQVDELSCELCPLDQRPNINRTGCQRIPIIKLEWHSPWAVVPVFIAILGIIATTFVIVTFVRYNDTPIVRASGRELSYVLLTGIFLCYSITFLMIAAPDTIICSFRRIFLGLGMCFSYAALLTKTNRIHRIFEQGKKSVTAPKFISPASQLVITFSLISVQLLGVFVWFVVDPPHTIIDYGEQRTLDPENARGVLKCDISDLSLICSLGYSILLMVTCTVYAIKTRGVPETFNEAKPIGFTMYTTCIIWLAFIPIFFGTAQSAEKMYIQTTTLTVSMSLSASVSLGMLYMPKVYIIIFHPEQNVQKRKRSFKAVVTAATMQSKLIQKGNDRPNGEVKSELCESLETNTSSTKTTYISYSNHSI
row,Compound,z-score
1,OC(c1cccs1)(c1cccs1)C1C[N+]2(CF)CCC1CC2 (configuration not stated),-0.36
2,O=C(NCCO)C1CCN(S(=O)(=O)c2ccc(F)cc2)CC1,-0.466
3,CCOc1cc(C(=O)Nc2cnccn2)cc(OCC)c1OCC,-0.438
4,COc1ccc(CCN(C)C(=O)N2CCOCC2)cc1OC,0.0315
5,COc1ccc2cc(C3(C)NC(=O)N(CC(=O)Nc4c(C)n(C)n(-c5ccccc5)c4=O)C3=O)ccc2c1 (configuration not stated),0.117
6,COc1ccc(-c2nc3ccccc3c(=O)n2CCOc2ccc(C)cc2C)cc1,-0.182
7,c1ccc(CCc2nc(-c3ccccn3)no2)cc1,1.29
8,COC(=O)c1ccc2c(=O)n(CCCCCC(=O)NCc3ccccc3)c(=O)[nH]c2c1,0.645
9,O=C(Cc1cccs1)Nc1nc2ccccc2s1,-0.401
10,O=C(CNS(=O)(=O)c1ccc(Br)s1)N1CCC(N2CCCCC2)CC1,-0.0225
11,O=C(COC(=O)c1cc(-c2cccnc2)nc2ccccc12)Nc1ccc(F)cc1F,-0.565
12,CCC(C)(NC(=O)c1ccccn1)C(=O)NC1CCCCC1 (configuration not stated),0.115
13,O=C(C1CCCN(S(=O)(=O)c2cccc3nonc23)C1)N1CCN(c2cccc(Cl)c2)CC1 (configuration not stated),0.658
14,Cc1cccc(CSCCNC(=O)c2ccc(N(C)S(=O)(=O)c3ccccc3)cc2)c1,-0.463
15,CCCN1CCC(=NNC(=O)CSc2cc(C)c(Br)cc2C)CC1,-0.165
16,CCNC(=O)Cn1c(=O)c2c(ncn2Cc2ccccc2)n(Cc2ccccc2)c1=O,-0.301
17,CCCCC1CC(CSC(=N)N)OC1=O (configuration not stated),0.732
18,Cc1cccc(C)c1NC(=S)N(Cc1ccco1)C1CCN(C(C)C)CC1,-0.133
19,CC(C)n1nc(C(=O)OCn2nnc3ccccc3c2=O)c2ccccc2c1=O,-0.698
20,O=C(NCc1cccs1)c1ccc(CS(=O)(=O)c2ccc(Cl)cc2)o1,-0.408
21,CC(C)C1C(C#N)=C(N)Oc2n[nH]c(-c3ccccc3)c21 (configuration not stated),-0.771
22,Cc1ccc(CCNC(=O)c2coc3nc4ccccc4nc23)cc1,0.0587

row,Compound,z-score
1,Nn1cnnc1SC1CCCCC1NS(=O)(=O)c1ccccc1 (configuration not stated),-0.0644
2,CCCN(CCC)CCNC(=O)Cn1cnc2sc(C)c(S(=O)(=O)N3CCOCC3)c2c1=O,0.803
3,CCOC(=O)C(=O)Nc1ccc(S(=O)(=O)Nc2ncccn2)cc1,-0.0325
4,COC(=O)c1c(NC(=O)C2Cc3ccccc3C(=O)O2)sc2c1CCCC2 (configuration not stated),-0.232
5,Cc1ccc(OC(=S)Nc2ccc(O)cc2)cc1,0.0849
6,Cc1ccc([N+](=O)[O-])cc1NC(=O)c1ccc(CSc2ccccc2)cc1,-0.433
7,COc1ccc(/C=C/C2=NC(=C\N(C)C)/C(=O)O2)cc1,-0.643
8,CO/N=C(/CNC(=O)c1ccc(Cl)cc1Cl)c1ccc(Cl)cc1,-0.178
9,O=C(Nc1ccc(OCC(=O)N2CCC(Cc3ccccc3)CC2)cc1)c1ccco1,1.42
10,O=C1NC(NS(=O)(=O)c2ccc(Cl)cc2)(C(F)(F)F)C(=O)N1c1ccccc1 (configuration not stated),-0.21
11,C#CC[N+](C)(C)CCCCCCCCCC,-0.708
12,Cc1noc(C(=O)Nc2ccccc2C(F)(F)F)c1Cl,-0.0737
13,Cc1cc(Nc2ccccc2)nc(N)n1,-0.126
14,CN(CC(=O)N1CC=C(c2ccccc2)CC1)S(=O)(=O)c1ccc2c(c1)c(=O)n(C)c(=O)n2C,-0.448
15,N#Cc1cc([N+](=O)[O-])ccc1Oc1cccc(/C=N/NC(=O)c2ccc(Cl)cc2)c1,-0.242
16,O=C(N1CCCC1)n1c(Cc2ccccc2)nc2ccccc21,1.03
17,C=CCNC(=O)c1ccc(-c2nc(-c3ccc(Cl)c(Cl)c3)cs2)cc1,-0.148
18,O=C(NC1CCN(C(=O)N2c3ccccc3Sc3ccccc32)CC1)c1ccccc1Cl,-0.141
19,O=C(O)CN(c1ccc2c(c1)OCCO2)S(=O)(=O)c1ccccc1,0.571
20,O=C1NC(=O)/C(=C\c2ccccc2OCc2cccc([N+](=O)[O-])c2)N1,0.121
21,O=C(c1ccccc1)c1cc([N+](=O)[O-])ccc1N1CCOCC1,-0.227
22,O=C(c1ccccc1)c1nn(-c2ccccc2)c2nnc(Cc3ccccc3)c(=O)n12,0.0936

row,Compound,z-score
1,COc1ccc(C2CC(c3ccc(Br)cc3)Nc3nc(N)nn32)cc1 (configuration not stated),1.67
2,O=C(NCc1ccccc1)/C(NC(=O)c1ccccc1)=C(/Sc1ccccn1)c1ccccc1,-0.559
3,O=[N+]([O-])c1ccccc1/C=N/N1CCN(c2ccc(Cl)cc2)CC1,0.09
4,COc1ccc(C(=O)/C=C/C(=O)N(Cc2ccc(F)cc2)C(C(=O)NC2CCCCC2)c2ccncc2)c(O)c1 (configuration not stated),0.484
5,CC(C)OC(=O)CSc1nc2cc3c(cc2cc1C#N)OCO3,0.206
6,Cc1cc(N2CCOCC2)c(F)cc1C(=O)c1ccccc1,-0.135
7,CC1(C)Cc2c(sc3c2C2=NCCN2C=N3)CS1,-0.436
8,COc1ccc(NC(=O)C(NC(C)=O)C(=O)NCc2ccccc2Cl)cc1 (configuration not stated),0.051
9,CCOC(=O)C1=C(C)N=c2s/c(=C\C(=O)OC)c(=O)n2C1c1ccc(OC)cc1 (configuration not stated),-0.276
10,Cc1[nH]c2c(Br)cccc2c1[C@H]1[C@@H](CC#N)C1(C)C,-0.534
11,CCCCOc1ccc(C(=O)N/C(=C\c2ccc([N+](=O)[O-])cc2)C(=O)OCc2ccco2)cc1,-0.576
12,COCCCNC(=O)C1CCC(=O)N1Cc1ccccc1Cl (configuration not stated),-0.0555
13,S=c1sc(SCCOc2ccccc2)nn1-c1ccccc1,-0.317
14,CCOC(=O)c1c(C)[nH]c(C)c1C(=O)CSc1nc(N)cc(=O)[nH]1,-0.0689
15,CCC(=O)Nc1cc(SCCO)cc([N+](=O)[O-])c1,0.0657
16,CC(=O)OCC(=O)Nc1ccc(C(C)=O)cc1,-0.127
17,Cc1ccc(C(NC(=O)C2CCCCC2)c2c(O)ccc3ccccc23)cc1 (configuration not stated),-0.571
18,CCOC(=O)C1CCN(C(=O)c2ccccc2NC(=O)c2ccc(Cl)cc2)CC1,1.35
19,COc1ccc(F)cc1S(=O)(=O)Nc1ccc(C)cc1,0.102
20,CCOc1ncccc1C(=O)OCc1ccc(C(=O)OC)cc1,-0.497
21,CCOC(=O)c1c(C)[nH]c(C)c1C(=O)COC(=O)/C=C/c1cccc(C(F)(F)F)c1,0.171
22,O=C(NCc1nnc(SCC(=O)N2CCCC2)o1)c1ccccc1F,-0.183

row,Compound,z-score
1,CCCCn1c(SCc2cccc([N+](=O)[O-])c2)nc2ccsc2c1=O,-0.383
2,Cc1sc2ncnc(NCC(C)(C)N3CCOCC3)c2c1C,0.226
3,COC(=O)c1cc(OC)c(OC)cc1NC(=S)N1CCCCC1,-0.386
4,Cc1cc(N2CCN(c3ccc(F)cc3)CC2)nc2cc(O)ccc12,-0.13
5,CCN1CCN(C(=O)c2ccc(NS(=O)(=O)c3ccccc3)cc2)CC1,0.343
6,COc1ccc(C2CC3CC(c4ccccc4)N2O3)cc1 (configuration not stated),-0.085
7,C(=N\n1cnnc1)/c1cccnc1,0.513
8,CCN1CCn2c3c(c4cc(C)ccc42)CCCC31 (configuration not stated),0.485
9,CCN1CCN(C(=O)C2(NC(=O)Nc3ccccc3Cl)CCCCC2)CC1,0.404
10,Cc1ccc(S(=O)(=O)NCCc2ccc(S(N)(=O)=O)cc2)cc1,0.0652
11,CCCN(CC1CC1)C(=O)COC(=O)c1ccc(CNS(=O)(=O)c2ccc(F)c(Cl)c2)cc1,-0.223
12,CC(=O)Nc1ccc(C2=NN(CC#N)C(=O)SC2)cc1,-0.0818
13,Cc1cc(=O)[nH]c(SCC(=O)Nc2ccccc2C#N)c1C#N,0.21
14,Nc1nnc(SCC(=O)c2ccc3ccccc3c2)s1,-0.158
15,CC(C)(C)c1ccccc1OCCOCCNCc1ccccc1,-0.673
16,CCCCOc1ccc(C2C(=O)N(C3CCCCC3)CC(=O)N2CC2CCCO2)cc1 (configuration not stated),-0.206
17,CCOC(=O)c1cnn(-c2ccccc2)c1-n1cccc1C(=O)C(=O)Nc1ccc(OC)cc1,-0.189
18,CCOC(=O)c1c(C)[nH]c(C)c1C(=O)COC(=O)c1ccc(Cl)c(S(=O)(=O)NCc2ccccc2)c1,-0.142
19,CCOc1ccc(NC(=O)/C=C/c2ccccc2)c([N+](=O)[O-])c1,-2.4
20,COc1cc(/C=C(\C#N)c2ccccn2)ccc1OCc1ccccc1Cl,-0.253
21,CCOc1ccc(CNC(=O)c2ccc(Sc3ccc(Cl)cc3)c(NC(C)=O)c2)cc1,-0.0412
22,Cc1ccc(S(=O)(=O)N(CC(=O)N/N=C/c2cccc3c2OCCO3)c2ccccc2F)cc1,-0.291

row,Compound,z-score
1,Cc1ccc(C(=O)N/N=C/c2ccc([N+](=O)[O-])s2)cc1,-0.176
2,Cc1cc(C)nc(NS(=O)(=O)c2ccc(NC(=O)c3cccs3)cc2)n1,-0.176
3,CCN(CC)CCNC(CC(=O)Nc1ccc(Cl)cc1Cl)C(=O)O (configuration not stated),0.968
4,COc1cccc(/C=N/NC(=O)CSc2nnc(C)n2-c2ccccc2)c1OC,-0.0834
5,Cc1cc(O)c(C(C)C)cc1NC1=NS(=O)(=O)c2ccccc21,-0.941
6,CC(=O)OC(C(=O)NC1CCCCC1)c1ccc(C#N)cc1 (configuration not stated),-0.383
7,O=c1cc(-c2ccccc2)c2ccccc2[nH]1,0.953
8,CC(=O)Oc1ccc(-c2cccc(C(=O)NCC(=O)O)c2)cc1,-0.762
9,Cn1c(N)c(C(=O)COC(=O)CN2C(=O)c3ccccc3C2=O)c(=O)n(C)c1=O,0.0178
10,COc1ccc(CNC(=O)C(c2ccc(C)o2)N(Cc2cccs2)C(=O)Cc2cccs2)cc1 (configuration not stated),-0.248
11,O=S(=O)(c1ccc2ccccc2c1)N1CCN(S(=O)(=O)N2CCOCC2)CC1,0.17
12,O=C1CCCc2c1cc(-c1ccccc1)n2-c1ccc(O)cc1,-0.123
13,CCOC(=O)C(C)Sc1nnc(CSc2nc3nc(C)cc(C)n3n2)o1 (configuration not stated),-0.804
14,COc1ccc(Cl)cc1S(=O)(=O)N1CCN(C)CC1,0.36
15,COCCCNC(=O)CCn1c(=O)c2ccccc2n(CC(=O)Nc2ccc(C)cc2C)c1=O,-0.836
16,COc1ccc(-c2ccnc(-c3ccc(OCCCF)cc3)n2)cc1,-0.124
17,CCS(=O)(=O)Nc1ccc(NC(C)=O)cc1,-0.147
18,COc1ccc(-c2nn(CCC(=O)O)cc2/C=C2\SC(N)=NC2=O)cc1OC,-0.128
19,Cc1sc2nc(COC(=O)c3ccc(N4CCCC4)c([N+](=O)[O-])c3)[nH]c(=O)c2c1C,-0.219

# — PubChem BioAssay AID488969 (Vanderbilt High Throughput Screening Facility, 2010)
